According to ChEMBL document CHEMBL4888484, “Replenishing the malaria drug discovery pipeline: Screening and hit evaluation of the MMV Hit Generation Library 1 (HGL1) against asexual blood stage Plasmodium falciparum ,using a nano luciferase reporter read-out” (2022):
Among all 150,000 compounds or so, about 540 (0.36%) showed an effect of 50% or more. Some of the results follow.

Tested on: Plasmodium falciparum
Experiment: Primary screen in NF54 nanoGlo assay, in single point, at 2uM, 72h; a lower Z score goes with more inhibition
Type: functional, Erythrocyte
Conditions: timepoint 72 hour

SMILES | % Inhibition | Z score
N#Cc1cc(Br)cc(F)c1N | -8% | 0.98
CCN1C(=O)Cc2cc(NC(=O)COc3ccccc3C)ccc21 | -2% | 0.37
CCN(CC)Cc1cccc(NC(=O)c2ccc3c(c2)NC(=O)CN3C)c1 | -10% | 1.97
Cc1noc(C2CCN([C@@H](C)CCc3ccccc3)CC2)n1 | -8% | 1.09
O=C(c1ccc(Cl)cc1OC1CCN(C[C@H]2CCOC2)CC1)N1CCCCC1 | -7% | 1.01
C[C@H]1Cc2cc(NC(=O)CCN3CCN(C)CC3)ccc2O1 | 0% | 0.02
CCn1cc(S(=O)(=O)NCc2noc(C(C)C)n2)c(C)n1 | 1% | -0.16
O=C(Cc1ccc(Cl)c(Cl)c1)Nc1ccc(-n2cncn2)cn1 | 0% | 0.04
CCc1ncc(-c2nc(CC3CCN(C)CC3)nn2CC(F)(F)F)cn1 | 9% | -1.53
O=C(NCc1ccco1)c1ccc(Oc2ccccc2)cc1 | -5% | 0.88
Cn1ccc(-c2nnc(NC(=O)COc3ccccc3)o2)n1 | -12% | 1.94
CCCOc1ccc(Br)cc1S(=O)(=O)N[C@@H](C)CC | -2% | 0.21
CCC(CC)(CNC[C@@H]1CC=CCC1)S(C)(=O)=O | -6% | 0.6
O=C1CCC2(CCN(C3Cc4ccccc4C3)CC2)CN1CCc1ccncc1 | -7% | 1.41
O=C(O)C[C@H]1COCCN1Cc1ccc(-c2cccc(Cl)c2Cl)o1 | 2% | -0.2
C[C@H](NS(=O)(=O)c1ccc2[nH]c(=O)n(C)c(=O)c2c1)c1nncn1C | -21% | 2.75
CCc1nc(CNC(=O)N2CCC[C@H](c3nc4ccccc4n3C)C2)no1 | -3% | 0.66
CC(C)N1Cc2cc(C(=O)NC3CCCCCC3)sc2C1 | 6% | -1.09
COc1ccccc1OCc1n[nH]c(Cc2c(C)noc2C)n1 | -1% | 0.14
CS(=O)(=O)N1CC[C@H](S(=O)(=O)c2ccccc2)C1 | -8% | 1.29
C[C@H]1CN(S(=O)(=O)c2ccc3c(c2)CCO3)CCO1 | -14% | 1.27
C[C@H](Nc1cnn(C)c1)C(=O)NCCC1=CCCCC1 | -1% | 0.17
O=C(c1ccco1)N1CCC(n2cc(C3CCCC3)nn2)CC1 | -5% | 0.98
CC(NC(=O)OC(C)(C)C)C(O)c1ccc(F)c(F)c1 (stereo not drawn) | -7% | 0.97
Cc1cc(NC(=O)N2CCN[C@@H]3CS(=O)(=O)C[C@@H]32)n(C2CCCCC2)n1 | 1% | -0.23
Cn1cc(-c2ccccc2CNC(=O)C2(N3CCOCC3)CCC2)cn1 | 1% | -0.15
CC1(NC(=O)OC(C)(C)C)CCC(N[C@H]2CCc3nccn3C2)CC1 (stereo partly drawn) | -1% | 0.21

SMILES | % Inhibition | Z score
O=C(NCC1COCCO1)N1CCCC1c1ccncc1 (stereo not drawn) | 10% | -1.3
Cc1nc(C(=O)Nc2ccccc2N(C)C(C)C)c(C)o1 | -42% | 4.92
O=C(NCCN1CCCC[C@@H]1CO)c1ccc(-c2cc(F)ccc2O)cc1 | 6% | -0.81
Cc1nc(N)nc(-c2cccc(C(=O)NCC(=O)N(C)C)c2)c1Cl | -9% | 1.82
COc1cc(-c2n[nH]cc2CN(C[C@H]2CCC(=O)N2)C(C)C)cc(OC)c1OC | -18% | 1.93
Cc1cncn1CC(=O)N1CCCS(=O)(=O)C[C@H]1c1ccccc1 | -2% | 0.3
CN(Cc1noc(C2CCCC2)n1)C(=O)Cc1n[nH]c(=O)[nH]1 | -9% | 1.61
O=C(NCc1ccno1)c1cccc(Br)c1Cl | -8% | 1.12
CCCOCCCNC(=O)c1c(C)noc1-c1cccnc1 | -10% | 1.05
O=C(NC1CCCC1)C1CCN(c2cncnc2N2CCOCC2)CC1 | -1% | 0.26
CNC(=O)[C@@H]1C[C@H](Oc2ccccc2)CN1C1CCN(C(=O)CCn2cc(C)cn2)CC1 | -4% | 0.51
CC(C)[C@@H]1NC(=O)N(CC(=O)N2CCCCC2)C1=O | -8% | 0.86
O=c1[nH]c(N2CCOCC2)nc2nccc(-c3ccc(-c4ccccc4)cc3)c12 | -13% | 1.82
O=C(NCc1cccc(COc2ccccc2)c1)C1CCCCC1 | -11% | 2.08
Cc1c(Cl)cccc1S(=O)(=O)N1CC(Oc2cccnc2)C1 | -1% | 0.21
Cc1cccc(CN2C(=O)OC(c3ccc(NC(=O)C(C)C)cc3)C2C(=O)Nc2ccccc2)c1 (stereo not drawn) | -11% | 1.15
OCc1cccc(NCc2ccc3cn[nH]c3c2)c1 | -1% | 0.07
O=C(c1coc(COc2ccc(F)cc2Cl)n1)N1CCCC1 | -28% | 2.48
CCC1=NO[C@@H](CNC(=O)c2cccc(-c3n[nH]c4cccc(C)c34)c2)C1 | -7% | 0.97
N[C@@H]1C[C@@H]2CC(c3nc(C4(c5ccccc5)CCC4)no3)C[C@@H]21 (stereo partly drawn) | -1% | 0.1
COc1ccc(CCC(=O)N2CC(c3nc(-c4cccc(Cl)c4)no3)C2)cc1 | -6% | 1.21
Cc1ccccc1CNC(=O)[C@H]1CCCN(C2CCN(Cc3ccncc3)CC2)C1 | 12% | -1.56
Cc1cc2nn(CC(=O)Nc3ccc(F)c(F)c3)c(=O)n2c(Nc2ccccc2)n1 | 10% | -1.83
Cc1nn(C)c(C)c1C(=O)N1CCCC[C@H]1c1cnn(C)c1 | -17% | 2.66
COC[C@@]12CCN(C(=O)Nc3cccc(C(F)(F)F)c3)C[C@@H]1CN(S(C)(=O)=O)C2 | -1% | 0.07
Cc1nc(COc2nc(C(C)(C)C)no2)cs1 | 41% | -5.98
Cc1ccc(-n2ncc3c2CC(C)(C)C[C@@H]3NCc2ccc(CO)o2)cc1 | -18% | 1.71
